According to a collection of fitness landscapes (doi:10.1126/science.1257360):
The other results are listed elsewhere or left out.

B1: PhoQ; a variant is named by its letters at X, in order, P23837 (parent)
chain: MKKLLRLFFPLSLRVRFLLATAAVVLVLSLAYGMVALIGYSVSFDKTTFRLLRGESNLFYTLAKWENNKLHVELPENIDKQSPTMTLIYDENGQLLWAQRDVPWLMKMIQPDWLKSNGFHEIEADVNDTSLLLSGDHSIQQQLQEVREDDDDAEMTHSVAVNVYPATSRMPKLTIVVVDTIPVELKSSYMVWSWFIYVLSANLLLVIPLLWVAAWWSLRPIEALAKEVRELEEHNRELLNPATTRELTSLVRNLNRLLKSERERYDKYRTTLTDLTHSLKTPLXXLQXXLRSLRSEKMSVSDAEPVMLEQISRISQQIGYYLHRASMRGGTLLSRELHPVAPLLDNLTSALNKVYQRKGVNISLDISPEISFVGEQNDFVEVMGNVLDNACKYCLEFVEISARQTDEHLYIVVEDDGPGIPLSKREVIFDRGQRVDTLRPGQGVGLAVAREITEQYEGKIVAGESMLGGARMEVIFGRQHSAPKDE

Variants of: B1
Experiment: enrichment ratio after two sorts for PhoP signalling (ratio (wild type AVST 3.29)); higher = more functional
Details: with PhoP (E. coli)

Q: For LSCV, which enrichment ratio is on record?
A: ≤ 0.25

Q: How did the enrichment ratio turn out when DDYR was run?
A: ≤ 0.25

Q: PGYM was tested. Which enrichment ratio did it give?
A: ≤ 0.25

Q: For RDFY, which enrichment ratio is on record?
A: ≤ 0.25

Q: For IKMG, which enrichment ratio is on record?
A: ≤ 0.25

Q: For IAPG, which enrichment ratio is on record?
A: ≤ 0.25

Q: EYGE was tested. Which enrichment ratio did it give?
A: ≤ 0.25

Q: With RWWV as the variant, how does the enrichment ratio read?
A: ≤ 0.25

Q: With AFNF as the variant, how does the enrichment ratio read?
A: ≤ 0.25

Q: With PLEF as the variant, how does the enrichment ratio read?
A: ≤ 0.25

Q: Which enrichment ratio does the source give for YCEF here?
A: ≤ 0.25

Q: With ENNL as the variant, how does the enrichment ratio read?
A: ≤ 0.25

Q: KDSR was tested. Which enrichment ratio did it give?
A: ≤ 0.25

Q: How did the enrichment ratio turn out when MIMD was run?
A: ≤ 0.25

Q: For RQKI, which enrichment ratio is on record?
A: 19.2

Q: For KFHM, which enrichment ratio is on record?
A: ≤ 0.25

Q: With NWML as the variant, how does the enrichment ratio read?
A: ≤ 0.25

Q: For YQGL, which enrichment ratio is on record?
A: ≤ 0.25

Q: Which enrichment ratio does the source give for YLCV here?
A: ≤ 0.25

Q: How did the enrichment ratio turn out when AIHQ was run?
A: ≤ 0.25

Q: Which enrichment ratio does the source give for TIHY here?
A: ≤ 0.25

Q: With REYQ as the variant, how does the enrichment ratio read?
A: ≤ 0.25

Q: With HTCF as the variant, how does the enrichment ratio read?
A: ≤ 0.25

Q: For LQIP, which enrichment ratio is on record?
A: ≤ 0.25

Q: How did the enrichment ratio turn out when KYHE was run?
A: ≤ 0.25

Q: Which enrichment ratio does the source give for ANEG here?
A: ≤ 0.25

Q: For LQYL, which enrichment ratio is on record?
A: ≤ 0.25

Q: With SPQT as the variant, how does the enrichment ratio read?
A: ≤ 0.25

Q: Which enrichment ratio does the source give for PPEK here?
A: ≤ 0.25

Q: For STVF, which enrichment ratio is on record?
A: 8.56

Q: With TESG as the variant, how does the enrichment ratio read?
A: 24.9

Q: Which enrichment ratio does the source give for WFMN here?
A: ≤ 0.25

Q: For AIGT, which enrichment ratio is on record?
A: ≤ 0.25

Q: Which enrichment ratio does the source give for FEKF here?
A: ≤ 0.25

Q: With YPCV as the variant, how does the enrichment ratio read?
A: ≤ 0.25

Q: QACI was tested. Which enrichment ratio did it give?
A: ≤ 0.25

Q: With SGFE as the variant, how does the enrichment ratio read?
A: ≤ 0.25

Q: ATPQ was tested. Which enrichment ratio did it give?
A: ≤ 0.25

Q: For TFGN, which enrichment ratio is on record?
A: ≤ 0.25

Q: How did the enrichment ratio turn out when ECVH was run?
A: ≤ 0.25

Q: For EAHW, which enrichment ratio is on record?
A: 1.32

Q: Which enrichment ratio does the source give for REHP here?
A: ≤ 0.25

Q: KHLY was tested. Which enrichment ratio did it give?
A: ≤ 0.25

Q: For THMK, which enrichment ratio is on record?
A: ≤ 0.25

Q: Which enrichment ratio does the source give for TEYN here?
A: 3.14

Q: GFGC was tested. Which enrichment ratio did it give?
A: ≤ 0.25

Q: Which enrichment ratio does the source give for VTIR here?
A: ≤ 0.25

Q: NCMS was tested. Which enrichment ratio did it give?
A: ≤ 0.25

Q: With QEAD as the variant, how does the enrichment ratio read?
A: ≤ 0.25

Q: Which enrichment ratio does the source give for FWHY here?
A: ≤ 0.25

Q: HRIV was tested. Which enrichment ratio did it give?
A: ≤ 0.25

Q: How did the enrichment ratio turn out when SMHR was run?
A: ≤ 0.25

Q: With MQVT as the variant, how does the enrichment ratio read?
A: 4.23

Q: With RFWP as the variant, how does the enrichment ratio read?
A: 0.407

Q: For MDRS, which enrichment ratio is on record?
A: ≤ 0.25

Q: With WENN as the variant, how does the enrichment ratio read?
A: ≤ 0.25

Q: How did the enrichment ratio turn out when KADD was run?
A: ≤ 0.25

Q: Which enrichment ratio does the source give for IVCP here?
A: ≤ 0.25

Q: How did the enrichment ratio turn out when RTWA was run?
A: ≤ 0.25

Q: With LGQD as the variant, how does the enrichment ratio read?
A: ≤ 0.25

Q: How did the enrichment ratio turn out when EHYI was run?
A: ≤ 0.25

Q: Which enrichment ratio does the source give for KAAF here?
A: ≤ 0.25

Q: How did the enrichment ratio turn out when VSDA was run?
A: ≤ 0.25

Q: Which enrichment ratio does the source give for HNWY here?
A: ≤ 0.25

Q: YYNV was tested. Which enrichment ratio did it give?
A: ≤ 0.25

Q: How did the enrichment ratio turn out when MGAM was run?
A: 14.1

Q: Which enrichment ratio does the source give for EQCG here?
A: ≤ 0.25

Q: How did the enrichment ratio turn out when SQGC was run?
A: 1.76

Q: CTDF was tested. Which enrichment ratio did it give?
A: ≤ 0.25

Q: For VIIP, which enrichment ratio is on record?
A: ≤ 0.25

Q: YHHK was tested. Which enrichment ratio did it give?
A: ≤ 0.25

Q: Which enrichment ratio does the source give for MLFK here?
A: ≤ 0.25

Q: For HGLR, which enrichment ratio is on record?
A: ≤ 0.25

Q: Which enrichment ratio does the source give for ALQL here?
A: 8.94

Q: For DRFE, which enrichment ratio is on record?
A: ≤ 0.25

Q: For NNVF, which enrichment ratio is on record?
A: ≤ 0.25

Q: Which enrichment ratio does the source give for HIRK here?
A: ≤ 0.25

Q: Which enrichment ratio does the source give for TVVH here?
A: ≤ 0.25

Q: How did the enrichment ratio turn out when LIGW was run?
A: ≤ 0.25

Q: With GRWY as the variant, how does the enrichment ratio read?
A: ≤ 0.25

Q: Which enrichment ratio does the source give for LKSD here?
A: ≤ 0.25

Q: For ITKC, which enrichment ratio is on record?
A: ≤ 0.25

Q: SRMY was tested. Which enrichment ratio did it give?
A: ≤ 0.25

Q: How did the enrichment ratio turn out when PIVC was run?
A: ≤ 0.25
